Test results taken from the RNAGym collection of RNA variant scans (doi:10.1073/pnas.2313332121).
Variants at the background level are over-represented here.

B1: TPR 5TU (parent)
chain: GGAUCUUCUCGAUCUAACAAAAAAGACAAAUCUGCCACAAAGCUUGAGAGCAUCUUCGGAUGCAGAGGCGGCAGCCUUCGGUGGCGCGAUAGCGCCAACGUUCUCAACUAUGACACGCAAAACGCGUGCUCCGUUGAAUGGAGUUUAUCAUG

Variants of: B1
Experiment: polymerase ribozyme fitness, log enrichment relative to wild type (log ratio); higher = more active; in vitro selection for triplet polymerase activity
Outline: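 Only genotypes with ≥10 input reads and ≥1 read per output were kept after Illumina sequencing of input and output libraries. These libraries were PCR-built, transcribed mutants of each subunit of a heterodimeric triplet polymerase ribozyme, each put through one triplicate in vitro selection round with frozen incubation at −7 °C, gel excision of extended constructs, streptavidin-bead capture and RT-PCR. Fitness is a logarithmic ratio of genotype enrichment to wild-type enrichment, from inverse-variance-weighted replicate averages, with the logarithm in base 2.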
In the case of A91C C116A, the “polymerase ribozyme fitness (log ratio)” value is reported as at most -4.2.
For A91C C118G, the “polymerase ribozyme fitness (log ratio)” value was at most -4.2.
With A91C C118G G140C the “polymerase ribozyme fitness (log ratio)” value was at most -4.2.
In the case of A91C C118U, the “polymerase ribozyme fitness (log ratio)” value is reported as at most -4.2.
In the case of A91C C125U, the “polymerase ribozyme fitness (log ratio)” value is reported as at most -4.2.
For A91C G126A, the “polymerase ribozyme fitness (log ratio)” value was -4.03.
For A91C G141A, the “polymerase ribozyme fitness (log ratio)” value was at most -4.2.
With A91C U101G A150C the “polymerase ribozyme fitness (log ratio)” value was at most -4.2.
With A91C U102G A138C the “polymerase ribozyme fitness (log ratio)” value was at most -4.2.
With A91C U102G A150U the “polymerase ribozyme fitness (log ratio)” value was at most -4.2.
In the case of A91C U109G G140U, the “polymerase ribozyme fitness (log ratio)” value is reported as at most -4.2.
For A91G A97G U109G C149U, the “polymerase ribozyme fitness (log ratio)” value was at most -4.2.
In the case of A91G A113C U127C U146G, the “polymerase ribozyme fitness (log ratio)” value is reported as at most -4.2.
For A91G C93A, the “polymerase ribozyme fitness (log ratio)” value was at most -4.2.
For A91G C96A G100U A119C, the “polymerase ribozyme fitness (log ratio)” value was at most -4.2.
In the case of A91G C96U A106G, the “polymerase ribozyme fitness (log ratio)” value is reported as -2.5.
With A91G C105U C131A the “polymerase ribozyme fitness (log ratio)” value was -3.83.
With A91G C114A A150C the “polymerase ribozyme fitness (log ratio)” value was at most -4.2.
In the case of A91G C114A C116U A137C, the “polymerase ribozyme fitness (log ratio)” value is reported as -3.79.
In the case of A91G C118G, the “polymerase ribozyme fitness (log ratio)” value is reported as -3.49.
In the case of A91G C118U, the “polymerase ribozyme fitness (log ratio)” value is reported as -3.15.
For A91G G100A C149A, the “polymerase ribozyme fitness (log ratio)” value was at most -4.2.
With A91G G100C A119C U130A the “polymerase ribozyme fitness (log ratio)” value was at most -4.2.
For A91G G100U A106C, the “polymerase ribozyme fitness (log ratio)” value was at most -4.2.
For A91G G100U A113U A120G C125A U139G, the “polymerase ribozyme fitness (log ratio)” value was at most -4.2.
With A91G G140C the “polymerase ribozyme fitness (log ratio)” value was at most -4.2.
In the case of A91G G152A, the “polymerase ribozyme fitness (log ratio)” value is reported as -3.71.
With A91G U102G the “polymerase ribozyme fitness (log ratio)” value was at most -4.2.
In the case of A91G U104G A115C, the “polymerase ribozyme fitness (log ratio)” value is reported as -4.06.
With A91G U130G A150G the “polymerase ribozyme fitness (log ratio)” value was at most -4.2.
In the case of A91G U144A, the “polymerase ribozyme fitness (log ratio)” value is reported as -3.08.
With A91G U144A C149A the “polymerase ribozyme fitness (log ratio)” value was at most -4.2.
For A91G U145G, the “polymerase ribozyme fitness (log ratio)” value was -3.96.
For A91U A97C A115U A122G, the “polymerase ribozyme fitness (log ratio)” value was at most -4.2.
With A91U A97U the “polymerase ribozyme fitness (log ratio)” value was at most -4.2.
In the case of A91U A98G U102G C105U, the “polymerase ribozyme fitness (log ratio)” value is reported as at most -4.2.
For A91U A98U, the “polymerase ribozyme fitness (log ratio)” value was at most -4.2.
With A91U A98U A138G the “polymerase ribozyme fitness (log ratio)” value was at most -4.2.
With A91U A106G U111A G117U the “polymerase ribozyme fitness (log ratio)” value was at most -4.2.
With A91U A106G U135G the “polymerase ribozyme fitness (log ratio)” value was at most -4.2.
In the case of A91U A113C, the “polymerase ribozyme fitness (log ratio)” value is reported as at most -4.2.
For A91U A113C A150C, the “polymerase ribozyme fitness (log ratio)” value was at most -4.2.
For A91U A115G C118U U127G, the “polymerase ribozyme fitness (log ratio)” value was at most -4.2.
With A91U A115G G133C the “polymerase ribozyme fitness (log ratio)” value was at most -4.2.
In the case of A91U A119U G136U G141C G143C, the “polymerase ribozyme fitness (log ratio)” value is reported as at most -4.2.
With A91U A142U the “polymerase ribozyme fitness (log ratio)” value was -3.67.
For A91U A147G, the “polymerase ribozyme fitness (log ratio)” value was at most -4.2.
In the case of A91U C93U, the “polymerase ribozyme fitness (log ratio)” value is reported as at most -4.2.
With A91U C96G A98G C105G G143A the “polymerase ribozyme fitness (log ratio)” value was at most -4.2.
For A91U C103U U145A, the “polymerase ribozyme fitness (log ratio)” value was at most -4.2.
In the case of A91U C108G, the “polymerase ribozyme fitness (log ratio)” value is reported as at most -4.2.
With A91U C114U A150G the “polymerase ribozyme fitness (log ratio)” value was at most -4.2.
For A91U C114U U148G, the “polymerase ribozyme fitness (log ratio)” value was at most -4.2.
In the case of A91U C116U, the “polymerase ribozyme fitness (log ratio)” value is reported as at most -4.2.
For A91U C118G G141C, the “polymerase ribozyme fitness (log ratio)” value was -3.94.
With A91U C123A the “polymerase ribozyme fitness (log ratio)” value was at most -4.2.
With A91U C131G the “polymerase ribozyme fitness (log ratio)” value was at most -4.2.
In the case of A91U G128U, the “polymerase ribozyme fitness (log ratio)” value is reported as at most -4.2.
For A91U G143A, the “polymerase ribozyme fitness (log ratio)” value was at most -4.2.
For A91U U109A U127A, the “polymerase ribozyme fitness (log ratio)” value was at most -4.2.
In the case of A91U U109G G141U, the “polymerase ribozyme fitness (log ratio)” value is reported as at most -4.2.
With A91U U111G the “polymerase ribozyme fitness (log ratio)” value was at most -4.2.
In the case of A91U U130A, the “polymerase ribozyme fitness (log ratio)” value is reported as at most -4.2.
In the case of A91U U134G A137U, the “polymerase ribozyme fitness (log ratio)” value is reported as at most -4.2.
For A91U U139A G140C G143C, the “polymerase ribozyme fitness (log ratio)” value was at most -4.2.
For A91U U145G, the “polymerase ribozyme fitness (log ratio)” value was at most -4.2.
For A91U U148A, the “polymerase ribozyme fitness (log ratio)” value was at most -4.2.
With A91U U148G the “polymerase ribozyme fitness (log ratio)” value was at most -4.2.
In the case of A91U U151G, the “polymerase ribozyme fitness (log ratio)” value is reported as at most -4.2.
In the case of G92A, the “polymerase ribozyme fitness (log ratio)” value is reported as -2.51.
In the case of G92A A97G A122U U148C, the “polymerase ribozyme fitness (log ratio)” value is reported as -3.63.
With G92A A97G C99A C149A A150C the “polymerase ribozyme fitness (log ratio)” value was at most -4.2.
In the case of G92A A106C U111G G136A, the “polymerase ribozyme fitness (log ratio)” value is reported as at most -4.2.
With G92A A110U C131A U148A the “polymerase ribozyme fitness (log ratio)” value was at most -4.2.
With G92A A113C the “polymerase ribozyme fitness (log ratio)” value was -4.16.
For G92A C93A C105U A115C G124A U144A, the “polymerase ribozyme fitness (log ratio)” value was at most -4.2.
For G92A C93G C103G C116A U139C, the “polymerase ribozyme fitness (log ratio)” value was at most -4.2.
In the case of G92A C93U C96U, the “polymerase ribozyme fitness (log ratio)” value is reported as at most -4.2.
With G92A C95A A110U the “polymerase ribozyme fitness (log ratio)” value was at most -4.2.
For G92A C95A C125G, the “polymerase ribozyme fitness (log ratio)” value was -3.82.
For G92A C96A C103G C105U A107G A119G C125U C149A, the “polymerase ribozyme fitness (log ratio)” value was at most -4.2.
For G92A C96G, the “polymerase ribozyme fitness (log ratio)” value was at most -4.2.
In the case of G92A C96U A107C, the “polymerase ribozyme fitness (log ratio)” value is reported as at most -4.2.
